The results in this text go back to ChEMBL document CHEMBL1201862, “PubChem BioAssay data set” (2004).

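48-hour exposure; five concentrations; linearly interpolated endpoints. Abbreviation: GI50, concentration required for 50% inhibition of growth.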 Calls of active or inactive are those of the source. Rule as the data show it: active = GI50 up to about 1.1 µM and inactive = higher.

The assay relates to NCI-H322M. Kind of assay: NCI tumour cell line growth inhibition, 48 h.
With `O=C1Nc2ccccc2C1=Nc1ccc(S(=O)(=O)Nc2nccs2)cc1`, the GI50 was inactive: > 100 µM.

For `NCc1ccccc1.O=C(O)NCc1ccccc1`, the GI50 was inactive: 33.3 µM.

For the compound `COc1ccc(OC)c(-c2nc(O)c3ccccc3n2)c1`, the GI50 was inactive: > 100 µM.

With `c1ccc2c(c1)-c1nc3ccccc3cc1C2N1CCOCC1` (centres undefined), the GI50 is inactive: > 100 µM.

In the case of `Cn1cnc([N+](=O)[O-])c1Sc1nc(N)nc2c1ncn2Cc1ccccc1`, the GI50 is inactive: 25 µM.

Regarding `CC(C)(N)CO[C@H]1C[C@H]2CC[C@@]1(C)C2(C)C`, the GI50 is inactive: 18.6 µM.

Take `Nc1ccccc1SC(C[N+](=O)[O-])c1ccc2c(c1)OCO2` (centres undefined): the GI50 is inactive: 10.9 µM.

Take `O=C(/C=C/c1csc(-c2ccccc2)n1)NCc1ccc(C(=O)NCCc2ccccc2)cc1`: the GI50 is inactive: > 100 µM.

Turning to `CC(=O)O[C@H]1CC[C@@]2(C)C(=CC[C@@H]3C2CC[C@]2(C)Nc4oncc4CC32)C1` (some centres undefined), the GI50 was inactive: > 100 µM.

Regarding `CC(C)C1OC(=O)C(Cc2ccccc2)N(C)C(=O)C(C(C)C)OC(=O)C(Cc2ccccc2)N(C)C(=O)C(C(C)C)OC(=O)C(Cc2ccccc2)N(C)C1=O` (centres undefined), the GI50 was inactive: 1.52 µM.

With `CC(=O)Oc1ccc2c(c1)C(=O)c1nc(C)c(C)nc1C2=O`, the GI50 is inactive: 53.3 µM.

`CCN(CC)Cc1cc(/N=N\c2c(O)ccc3c(/N=N\c4ccc(O)c(CN(CC)CC)c4)c(O)ccc23)ccc1O`: the GI50 was inactive: 5.65 µM.

On to `COc1cc2c(cc1OC)C(SC)C(=O)N(Cc1cccc(OC)c1OC)CC2` (centres undefined), for which the GI50 is inactive: 12.7 µM.

Regarding `CC1=C(C(=O)NC2CCCCC2)CC(C(=O)NC2CCCCC2)=C(C)N1`, the GI50 is inactive: > 100 µM.

As for `Cn1c(=O)c2/c(n(C)c1=O)=N\C=c1\c(=O)n(C)c(=O)n(C)\c1=N\C=2`, the GI50 is inactive: > 100 µM.

Turning to `COc1c(Br)cc2c(c1OC)C(Br)CCC(Br)(Br)C2=O` (centres undefined), the GI50 is inactive: 4.81 µM.

As for `C/C(CC(=O)N(C(C)C)C(C)C)=N\NC(=O)c1ccncc1`, the GI50 is inactive: > 100 µM.

As for `N#Cc1c(N)n(-c2cccc(C(=O)O)c2)c(=O)c2cc([N+](=O)[O-])ccc12`, the GI50 was inactive: > 100 µM.

For `Nc1c(-c2ccccc2-c2c(N)[n+]([O-])c3ccccc3[n+]2[O-])[n+]([O-])c2ccccc2[n+]1[O-]`, the GI50 is inactive: 7.87 µM.

Consider `O=C1C(OC(=O)c2ccccc2)=C(c2ccc(O)cc2)C(=O)C(OC(=O)c2ccccc2)=C1c1ccc(O)cc1`, for which the GI50 was inactive: 67.5 µM.

`CO[C@H]1ON=C(c2c(C)cc(C)cc2C)[C@@H]1C1(c2ccccc2)ON=C(c2c(C)cc(C)cc2C)O1` (some centres undefined): the GI50 is inactive: > 100 µM.

Take `COC(=O)c1cc(C#N)[nH]c1-c1cc(Br)cs1`: the GI50 was inactive: 19.3 µM.

With `COC(=O)c1ccc(CCC2=CC(=O)C(Br)=CC2=O)cc1`, the GI50 was inactive: 26.5 µM.

With `CCOC(=O)C(C)c1nc2cc(N3CCN(C)CC3)c(F)cc2[nH]c1=O` (centres undefined), the GI50 was inactive: > 100 µM.

As for `O=c1c2cc(I)ccc2nc(Sc2ncccc2[N+](=O)[O-])n1Cc1ccccc1`, the GI50 is inactive: 39.7 µM.

Turning to `COc1nc(NC2OCC(O)C(O)C2O)c(NC2OCC(O)C(O)C2O)c(=O)n1C` (centres undefined), the GI50 was inactive: > 100 µM.

Consider `CCOC(=O)/C(=C/c1cccc(OC)c1)N(CC)CC`, for which the GI50 was inactive: > 100 µM.

Consider `O=C1C[C@@H](Sc2ccccc2)C2(OCCO2)[C@H]2ON3CCC[C@@H]3[C@@H]12`, for which the GI50 was active: 0.21 µM.

`CC(C)/C(Cl)=N/OC(=O)Nc1ccc(F)c(Cl)c1`: the GI50 was inactive: 17.7 µM.

In the case of `O=C1CCC2CCOc3ccc(O)c1c32` (centres undefined), the GI50 is inactive: > 100 µM.

Take `COc1ccc(/C=N/c2c(O)ccc3ccccc23)cc1OC`: the GI50 is inactive: > 100 µM.

Consider `CC(=O)NC(CCCN(Cc1ccccc1)C(=O)N(CCCl)N=O)C(=O)NCc1ccccc1` (centres undefined), for which the GI50 was inactive: 49.5 µM.

With `Cc1ccc(C(=O)N/N=C(\N=N\c2ccccc2Cl)c2ccc(N(C)C)cc2)cc1`, the GI50 was inactive: 41.3 µM.

For `CCCCCc1c(CCCC)c(=O)[nH]c2cc(CNCC(OC)OC)ccc12`, the GI50 is inactive: 13.9 µM.

With `COc1ccc2c(c1)c1nn(CCN3CCCCC3)c3ccc4c(=O)n(CCN(C)C)c(=O)n2c4c13`, the GI50 was active: < 0.01 µM.

As for `CC(=O)OCc1cn(S(=O)(=O)c2ccc(C)cc2)cn1`, the GI50 is inactive: > 100 µM.

As for `COc1ccc(/N=[N+](\[O-])c2ccc(OC)cc2)cc1`, the GI50 is inactive: > 100 µM.

As for `O=C(O)C1=C(C(=O)Nc2ccc(NC(=O)C3=C(C(=O)O)C4C=CC3C4)cc2)C2C=CC1C2`, the GI50 is inactive: > 100 µM.

With `Oc1ccccc1-c1nnc(S)n1/N=C/c1ccc(-c2ccc(Br)cc2)o1`, the GI50 is inactive: 34.7 µM.

`CCOC(=O)C1(C(=O)OCC)C(C(C)(C)C)=C(C)c2ccccc21`: the GI50 is inactive: 21 µM.

As for `CC(C)C(=O)CC(Sc1ccc(N)cc1)c1ccccc1` (centres undefined), the GI50 was inactive: 28.4 µM.

`CCOC(=O)C1(C/C=C/CBr)Cc2ccccc2C1=O` (centres undefined): the GI50 is inactive: 14.3 µM.

Consider `O=C1c2ccc3c4ccccc4n(Cc4ccccc4)c3c2C(=O)N1c1ccccc1`, for which the GI50 is inactive: 25.8 µM.

Consider `O=C(O)[C@@H]1[C@H](C(=O)O)[C@H](C(=O)O)C[C@@H]1C(=O)O`, for which the GI50 is inactive: > 100 µM.

Turning to `O=C1c2ccccc2OCC1/C=N/O` (centres undefined), the GI50 is inactive: > 100 µM.

For the compound `Cc1ccc([C@H]2CC(=O)C[C@H](c3ccc(C)cc3)C23C(=O)c2ccccc2C3=O)cc1`, the GI50 is inactive: 33.5 µM.

Regarding `C=CC1(C(=O)O)CCC(C(C)(C)C)CC1` (centres undefined), the GI50 is inactive: > 100 µM.

Turning to `C=CC1ON(Cc2ccccc2)CCc2cc(OC)c(OC)cc21` (centres undefined), the GI50 was inactive: > 100 µM.

In the case of `COc1ccc2nccc(C3=CCC4CCN(C(=O)c5ccccc5)C3C4)c2c1` (centres undefined), the GI50 was inactive: > 100 µM.

For the compound `COc1c(C)cc2c(c1O)C1C3[C@H]4SC[C@@]5(NCCC6=C5NC5C=CC=CC65)C(=O)OCC(c5c6c(c(C)c(OC(C)=O)c54)OCO6)N3[C@@H](O)C(C2)N1C` (some centres undefined), the GI50 is active: 0.0133 µM.

On to `Clc1ccc(-c2nnc(-c3c(Cl)c(Cl)c(Cl)c(Cl)c3-c3nc4ccccc4[nH]3)o2)cc1`, for which the GI50 is inactive: 97.5 µM.

Turning to `CC1SC2=NC3=C(c4ccccc4C3=O)C(c3ccc(Cl)cc3)N2C1=O` (centres undefined), the GI50 is inactive: > 100 µM.

Consider `O=C1c2ccccc2-c2c1c1ccccc1c(=O)n2Cc1ccccc1`, for which the GI50 is inactive: 71.4 µM.

For `COc1ccc(NC2Oc3cc4c(cc3C(c3cccc(OC)c3OC)C2C)OCO4)cc1` (centres undefined), the GI50 was inactive: 19.1 µM.

`Cc1c(Cl)ccc2c1NC(=O)C2(O)CC(=O)c1ccc(Cl)cc1` (centres undefined): the GI50 was inactive: > 100 µM.

Take `CC1(C)OC(=O)C(C#N)=C1/C=C/c1coc2ccc(Cl)cc2c1=O`: the GI50 was inactive: 71.4 µM.

For `COC1CC(N)C(O)C(C)O1` (centres undefined), the GI50 was inactive: > 100 µM.

As to `Cc1nc(Nc2ccccc2Cl)sc1C(=O)CC(=O)C(N)=O`, the GI50 is inactive: 56.8 µM.

Regarding `O=C1C2c3[nH]c4ccccc4c3C3CCCCC3C2C(=O)N1c1ccccc1` (centres undefined), the GI50 is inactive: > 100 µM.

For `Cc1c(Cl)cccc1NC(=O)C(=O)C(C(=O)c1ccccc1-c1ccccc1)C1OC(=O)c2ccccc21` (centres undefined), the GI50 was inactive: 19.5 µM.

With `C=C1C(=O)O[C@H]2[C@@H](O)[C@H](C)CCC/C(C)=C/CC[C@@]3(C)O[C@@H]3C[C@@H]12`, the GI50 is inactive: 14.6 µM.

With `CCn1c(=O)c(C(=O)O)c(Cl)c2cc3c(cc21)OCO3`, the GI50 was inactive: > 100 µM.

With `C=CCc1cc(OC)c2c(c1)C(OC(C)=O)CC(c1ccc(OC)c(OC)c1)O2` (centres undefined), the GI50 is inactive: > 100 µM.

Consider `FC(F)(F)c1cccc2ns[s+]c12`, for which the GI50 is inactive: > 100 µM.

For the compound `Clc1ccc(CCNCCNC2(c3cc4ccccc4s3)CCCCC2)cc1Cl`, the GI50 was inactive: 2.15 µM.

For the compound `Cc1ccc(S(=O)(=O)NN=C2C(C)(C)CC2(C)C)cc1`, the GI50 was inactive: > 100 µM.

For the compound `COc1cc2c(cc1OC)-c1cc3cc(OC)c(OC)cc3c(C)[n+]1CC2.O=C([O-])CS(=O)(=O)O`, the GI50 is inactive: > 100 µM.

Regarding `CCOC(=O)C12OC(CCC1=O)C(C(=O)OC)=C2C(=O)OC` (centres undefined), the GI50 is inactive: > 10 µM.

Consider `Cc1ccc(C)c(NC(=O)C(=O)C(C2C(C)CC(=O)C2CC(=O)O)[N+](=O)[O-])c1` (centres undefined), for which the GI50 is inactive: > 100 µM.

As for `COc1ccc(CC(O)CN2CCOCC2)cc1` (centres undefined), the GI50 was inactive: > 100 µM.

Regarding `CCCCCCCCCCCCCP(=O)(O)NCC(N)=O`, the GI50 was inactive: > 100 µM.

For the compound `COc1cc(C2c3cc4c(cc3[C@@H](N(C)C)[C@H]3COC(=O)C23)OCO4)cc(OC)c1O` (some centres undefined), the GI50 was inactive: > 100 µM.

Regarding `CNC(=O)NS(=O)(=O)c1ccc(C)cc1.NS(=O)O`, the GI50 was inactive: > 100 µM.

For the compound `CC(=O)OC1CC[C@@]2(C)C(CC[C@]3(C)C2CC=C2[C@@H]4CC(C)(C)CCC4(C)CCC23C)[C@@]1(C)C(=O)O` (some centres undefined), the GI50 is inactive: 15.9 µM.

In the case of `Nc1ccc(-c2nc3ccc(F)cc3s2)cc1Cl`, the GI50 is inactive: > 87.7 µM.

`Cc1c(N)nc([C@H](CC(N)=O)NC[C@H](N)C(N)=O)nc1C(=O)N[C@H](C(=O)N[C@H](C)[C@@H](O)CC(=O)N[C@H](C(=O)NC(O[C@@H]1O[C@@H](C)[C@@H](N)[C@@H](O)[C@H]1O)C(O)c1nc(-c2nc(C(=O)NCCCCN)cs2)cs1)[C@@H](C)O)[C@@H](O[C@@H]1O[C@@H](CO)[C@@H](O)[C@H](O)[C@@H]1O[C@H]1O[C@H](CO)[C@@H](O)[C@H](OC(N)=O)[C@@H]1O)c1c[nH]cn1` (some centres undefined): the GI50 was inactive: > 50 µM.

Consider `CC1CCC2C(C)C(=O)OC3OC4(C)CCC1C32OO4` (centres undefined), for which the GI50 is inactive: > 75.3 µM.

Consider `CC(Br)C(=O)NN1C2=C(Nc3ccccc31)c1cccc3cccc2c13` (centres undefined), for which the GI50 was inactive: 91 µM.

In the case of `Nc1ccc2c(c1)Nc1c3ccccc3nc3cccc-2c13`, the GI50 is inactive: 1.31 µM.
